Reference: a collection of fitness landscapes (doi:10.1126/science.1257360)
The other results are listed elsewhere or left out.

B1: PhoQ; a variant is named by its letters at X, in order, P23837 (parent)
chain: MKKLLRLFFPLSLRVRFLLATAAVVLVLSLAYGMVALIGYSVSFDKTTFRLLRGESNLFYTLAKWENNKLHVELPENIDKQSPTMTLIYDENGQLLWAQRDVPWLMKMIQPDWLKSNGFHEIEADVNDTSLLLSGDHSIQQQLQEVREDDDDAEMTHSVAVNVYPATSRMPKLTIVVVDTIPVELKSSYMVWSWFIYVLSANLLLVIPLLWVAAWWSLRPIEALAKEVRELEEHNRELLNPATTRELTSLVRNLNRLLKSERERYDKYRTTLTDLTHSLKTPLXXLQXXLRSLRSEKMSVSDAEPVMLEQISRISQQIGYYLHRASMRGGTLLSRELHPVAPLLDNLTSALNKVYQRKGVNISLDISPEISFVGEQNDFVEVMGNVLDNACKYCLEFVEISARQTDEHLYIVVEDDGPGIPLSKREVIFDRGQRVDTLRPGQGVGLAVAREITEQYEGKIVAGESMLGGARMEVIFGRQHSAPKDE

Variants of: B1
Assay: enrichment ratio after two sorts for PhoP signalling (ratio (wild type AVST 3.29)); higher = more functional
Settings: with PhoP (E. coli)

Variant | enrichment ratio
TCAE | ≤ 0.25
YTLD | ≤ 0.25
ACQN | ≤ 0.25
GPDM | ≤ 0.25
LFYR | ≤ 0.25
LEGS | ≤ 0.25
AMST | 12.2
HCAR | ≤ 0.25
PPCY | ≤ 0.25
IHYC | ≤ 0.25
EEYS | ≤ 0.25
WCGS | ≤ 0.25
ESNQ | ≤ 0.25
LFCF | ≤ 0.25
PNLH | ≤ 0.25
DGQD | ≤ 0.25
WTRD | ≤ 0.25
RQWH | ≤ 0.25
VTGH | ≤ 0.25
MTPD | ≤ 0.25
TVTR | 2.26
LTPG | ≤ 0.25
LEMT | 2.97
VMHI | ≤ 0.25

Variant | enrichment ratio
RILG | ≤ 0.25
GEFM | 6.94
ASRY | ≤ 0.25
DMPG | ≤ 0.25
SYGP | ≤ 0.25
QFNT | ≤ 0.25
KDSQ | ≤ 0.25
TSFQ | 6.93
GGGD | ≤ 0.25
FFHP | ≤ 0.25
FDSN | ≤ 0.25
NADF | ≤ 0.25
SQCF | 11.4
VDLS | ≤ 0.25
PGSC | ≤ 0.25
SMWC | ≤ 0.25
KAAI | ≤ 0.25
EFIF | ≤ 0.25
SAGH | 5.09
KYQC | ≤ 0.25
GGSH | ≤ 0.25
DTLE | ≤ 0.25
VPWC | ≤ 0.25
LDFM | ≤ 0.25

Variant | enrichment ratio
LSWG | ≤ 0.25
QKSL | 1.35
LDHF | ≤ 0.25
VGQI | ≤ 0.25
WNNS | ≤ 0.25
KNTH | ≤ 0.25
KVPC | ≤ 0.25
ERVQ | ≤ 0.25
GCRR | ≤ 0.25
HMYG | ≤ 0.25
VKYW | ≤ 0.25
ILKP | ≤ 0.25
KEPH | ≤ 0.25
VDQA | ≤ 0.25
SGGG | ≤ 0.25
WLHF | ≤ 0.25
YVTV | 0.286
RMAY | ≤ 0.25
YLSF | 0.291
FRCN | ≤ 0.25
TLWA | ≤ 0.25
IWRT | ≤ 0.25
QHHM | ≤ 0.25
RVFF | ≤ 0.25

Variant | enrichment ratio
IWND | ≤ 0.25
VHSV | ≤ 0.25
PAIF | ≤ 0.25
ICRS | ≤ 0.25
TTVA | 3.93
IVIT | ≤ 0.25
NKQR | ≤ 0.25
YPHF | ≤ 0.25
KKRA | ≤ 0.25
RPPQ | ≤ 0.25
QKNT | ≤ 0.25
LFAC | ≤ 0.25
FSHM | 0.793
YTRH | ≤ 0.25
HSMN | ≤ 0.25
SREW | ≤ 0.25
WRFP | 1.04
MLKW | ≤ 0.25
PFLR | ≤ 0.25
RLPP | ≤ 0.25
AIIK | 6.49
VVLM | 3.83
WKIS | ≤ 0.25
MKPP | ≤ 0.25

Variant | enrichment ratio
TFYT | ≤ 0.25
VCDD | ≤ 0.25
AYIF | ≤ 0.25
QQPP | ≤ 0.25
YRNT | ≤ 0.25
HMHG | ≤ 0.25
NIGD | ≤ 0.25
IHFR | ≤ 0.25
SRHC | ≤ 0.25
MLVS | ≤ 0.25
SGQC | 1.76
IGRK | ≤ 0.25
MTDW | ≤ 0.25
LMVG | ≤ 0.25
IKGD | ≤ 0.25
SQPW | ≤ 0.25
FWQP | ≤ 0.25
HRCI | ≤ 0.25
RYIV | ≤ 0.25
APYS | ≤ 0.25
VYWM | ≤ 0.25
EAAM | ≤ 0.25
ASPT | ≤ 0.25
LWNQ | ≤ 0.25

Variant | enrichment ratio
PCCY | ≤ 0.25
LLYN | ≤ 0.25
YFFT | ≤ 0.25
RQCR | ≤ 0.25
WEVS | ≤ 0.25
YWQF | ≤ 0.25
YHYQ | ≤ 0.25
HCPI | ≤ 0.25
TCMN | 58.3
MTCT | ≤ 0.25
EGCV | ≤ 0.25
VEYR | ≤ 0.25
RNYT | ≤ 0.25
FDSG | ≤ 0.25
PYSF | 0.37
NNFL | ≤ 0.25
NKLI | ≤ 0.25
HFNL | ≤ 0.25
VEVE | ≤ 0.25
LVVH | ≤ 0.25
SDNN | ≤ 0.25
MQKP | ≤ 0.25
MREF | ≤ 0.25
MSVD | ≤ 0.25

Variant | enrichment ratio
FSSF | ≤ 0.25
METG | 4.62
WERE | ≤ 0.25
MATP | ≤ 0.25
QRRE | ≤ 0.25
ICCC | ≤ 0.25
QIMK | ≤ 0.25
DWRK | ≤ 0.25
HYAY | ≤ 0.25
DDFE | ≤ 0.25
MRKN | ≤ 0.25
YAQW | ≤ 0.25
SPLT | ≤ 0.25
FIKM | ≤ 0.25
LRVR | ≤ 0.25
STHI | ≤ 0.25
AWKA | ≤ 0.25
ACPY | ≤ 0.25
FLGS | ≤ 0.25
SPYY | ≤ 0.25
MMKL | ≤ 0.25
AIMK | ≤ 0.25
FSKQ | ≤ 0.25
QFTM | ≤ 0.25

Variant | enrichment ratio
MRFG | ≤ 0.25
EPLC | ≤ 0.25
NDAM | ≤ 0.25
FPMS | ≤ 0.25
QHHL | ≤ 0.25
PHKP | ≤ 0.25
INIA | ≤ 0.25
QINI | ≤ 0.25
WGTD | ≤ 0.25
PTKV | ≤ 0.25
VCSG | 0.44
NKRW | ≤ 0.25
ISWT | 2.56
LVMD | ≤ 0.25
SVTH | 11.9
DPNC | ≤ 0.25
TCHF | 8.33
VTLV | 6.75
HSHY | ≤ 0.25
RYSQ | ≤ 0.25
KQHD | ≤ 0.25
DTIE | ≤ 0.25
MQDG | ≤ 0.25
DICV | ≤ 0.25

Variant | enrichment ratio
IGYS | ≤ 0.25
QSWE | ≤ 0.25
SVFH | ≤ 0.25
EGAC | ≤ 0.25
ECIF | ≤ 0.25
FPSI | 0.994
PFMR | ≤ 0.25
ICYG | ≤ 0.25
AIFT | ≤ 0.25
DILR | ≤ 0.25
LNGD | ≤ 0.25
SMEM | ≤ 0.25
VACQ | ≤ 0.25
NNAA | ≤ 0.25
DIPK | ≤ 0.25
LWLF | ≤ 0.25
WRER | ≤ 0.25
FCMD | ≤ 0.25
PQCY | ≤ 0.25
KGSY | ≤ 0.25
DGFQ | ≤ 0.25
LMTM | ≤ 0.25
TIVQ | ≤ 0.25
TFEK | ≤ 0.25

Variant | enrichment ratio
RMIP | ≤ 0.25
VSCY | 0.66
ARCA | ≤ 0.25
YQFE | ≤ 0.25
PLPD | ≤ 0.25
AVCD | 6.23
LAHI | 1.48
IMCN | ≤ 0.25
TLIR | ≤ 0.25
HTRH | ≤ 0.25
LQTK | ≤ 0.25
VGTH | ≤ 0.25
FPQY | ≤ 0.25
SQQC | ≤ 0.25
LNMC | 7.24
IGEI | ≤ 0.25
LQYW | ≤ 0.25
SISG | 8.7
VREW | ≤ 0.25
NIGW | ≤ 0.25
PVFY | ≤ 0.25
HEAA | ≤ 0.25
ALMK | ≤ 0.25
DGDI | ≤ 0.25

Variant | enrichment ratio
ILRR | ≤ 0.25
KIEL | ≤ 0.25
RTEP | ≤ 0.25
TFDA | ≤ 0.25
MNQR | ≤ 0.25
GGGY | ≤ 0.25
WERY | ≤ 0.25
MFQV | ≤ 0.25
EYQK | ≤ 0.25
IPND | ≤ 0.25
SVNM | 0.667
DFPD | ≤ 0.25
RCKS | ≤ 0.25
YLHW | ≤ 0.25
TSIC | 1.47
MPTW | ≤ 0.25
FYAW | ≤ 0.25
EDTH | ≤ 0.25
GSSP | ≤ 0.25
GTMI | ≤ 0.25
VQGE | ≤ 0.25
PSVK | ≤ 0.25
TQLV | 26.3
KAWA | ≤ 0.25

Variant | enrichment ratio
DAGA | ≤ 0.25
DLTL | ≤ 0.25
HENA | ≤ 0.25
SNNY | 8.91
VQHS | ≤ 0.25
QPLG | ≤ 0.25
HDYM | ≤ 0.25
CSVC | ≤ 0.25
FPNA | ≤ 0.25
NPWG | ≤ 0.25
DLPC | ≤ 0.25
RFIK | ≤ 0.25
GCSE | ≤ 0.25
YHTP | ≤ 0.25
QFVW | ≤ 0.25
SKDM | ≤ 0.25
VTDC | ≤ 0.25
LAWN | ≤ 0.25
DNST | ≤ 0.25
KHIA | ≤ 0.25
QSPP | ≤ 0.25
MYNN | ≤ 0.25
YEFN | ≤ 0.25
TSDC | 1.55

Variant | enrichment ratio
ARRF | ≤ 0.25
FIFG | ≤ 0.25
VRVD | ≤ 0.25
KTYI | ≤ 0.25
HKIE | ≤ 0.25
NHWA | ≤ 0.25
GGDC | ≤ 0.25
ALTK | 2.99
FPQF | ≤ 0.25
HTVY | ≤ 0.25
DCNW | ≤ 0.25
DIAH | ≤ 0.25
TARF | ≤ 0.25
PLKA | ≤ 0.25
LHWR | ≤ 0.25
NIQR | ≤ 0.25
EVWL | ≤ 0.25
RKYI | ≤ 0.25
